# Measured values from article PMC9911399, “Two distinct binding modes provide the RNA-binding protein RbFox with extraordinary sequence specificity”.
# Where a chain is given by its changes, count along the chain named. The list shows a part of the results.
# T1: RBFOX1 RRM (Homo sapiens, UniProt Q9NWB1 109-208)
# T1 sequence: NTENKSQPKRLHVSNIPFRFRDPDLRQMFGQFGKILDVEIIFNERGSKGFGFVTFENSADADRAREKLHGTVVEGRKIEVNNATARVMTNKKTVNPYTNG
# B1: GUCCUAG (DNA:RNA)
# RNA: GGGAGACCGGAAUUCAGAUUGUCCGUCCUAGUUAAAUCCCGUCGUAGCCACCA
# DNA 1: CAATCTGAATTCCGGTCTCCC
# DNA 2: TGGTGGCTACGACGGGATT
# B2: AGUAAAG (DNA:RNA)
# RNA: B1 RNA with G25A, U26G, C27U, C28A, U29A
# DNA 1: CAATCTGAATTCCGGTCTCCC
# DNA 2: TGGTGGCTACGACGGGATT
# B3: UAGGUAG (DNA:RNA)
# RNA: B1 RNA with G25U, U26A, C27G, C28G
# DNA 1: CAATCTGAATTCCGGTCTCCC
# DNA 2: TGGTGGCTACGACGGGATT
# B4: AGAAUCU (DNA:RNA)
# RNA: B1 RNA with G25A, U26G, C27A, C28A, A30C, G31U
# DNA 1: CAATCTGAATTCCGGTCTCCC
# DNA 2: TGGTGGCTACGACGGGATT
# B5: GGGGCUG (DNA:RNA)
# RNA: B1 RNA with U26G, C27G, C28G, U29C, A30U
# DNA 1: CAATCTGAATTCCGGTCTCCC
# DNA 2: TGGTGGCTACGACGGGATT
# B6: GCGGUGU (DNA:RNA)
# RNA: B1 RNA with U26C, C27G, C28G, A30G, G31U
# DNA 1: CAATCTGAATTCCGGTCTCCC
# DNA 2: TGGTGGCTACGACGGGATT
# B7: AAGCCCA (DNA:RNA)
# RNA: B1 RNA with G25A, U26A, C27G, U29C, A30C, G31A
# DNA 1: CAATCTGAATTCCGGTCTCCC
# DNA 2: TGGTGGCTACGACGGGATT
# B8: GUCGCUU (DNA:RNA)
# RNA: B1 RNA with C28G, U29C, A30U, G31U
# DNA 1: CAATCTGAATTCCGGTCTCCC
# DNA 2: TGGTGGCTACGACGGGATT
# B9: CUCCAAC (DNA:RNA)
# RNA: B1 RNA with G25C, U29A, G31C
# DNA 1: CAATCTGAATTCCGGTCTCCC
# DNA 2: TGGTGGCTACGACGGGATT
# B10: UGCGUUC (DNA:RNA)
# RNA: B1 RNA with G25U, U26G, C28G, A30U, G31C
# DNA 1: CAATCTGAATTCCGGTCTCCC
# DNA 2: TGGTGGCTACGACGGGATT
# B11: CCUUAUC (DNA:RNA)
# RNA: GGGAGACCGGAAUUCAGAUUGUCCCCUUAUCUUAAAUCCCGUCGUAGCCACCA
# DNA 1: CAATCTGAATTCCGGTCTCCC
# DNA 2: TGGTGGCTACGACGGGATT
# B12: UGGCAUC (DNA:RNA)
# RNA: B11 RNA with C25U, C26G, U27G, U28C
# DNA 1: CAATCTGAATTCCGGTCTCCC
# DNA 2: TGGTGGCTACGACGGGATT
# B13: AGAUAUG (DNA:RNA)
# RNA: B11 RNA with C25A, C26G, U27A, C31G
# DNA 1: CAATCTGAATTCCGGTCTCCC
# DNA 2: TGGTGGCTACGACGGGATT
# B14: GUCGAUU (DNA:RNA)
# RNA: B1 RNA with C28G, U29A, A30U, G31U
# DNA 1: CAATCTGAATTCCGGTCTCCC
# DNA 2: TGGTGGCTACGACGGGATT
# B15: AAAGCGG (DNA:RNA)
# RNA: B1 RNA with G25A, U26A, C27A, C28G, U29C, A30G
# DNA 1: CAATCTGAATTCCGGTCTCCC
# DNA 2: TGGTGGCTACGACGGGATT
# B16: UGAAUUG (DNA:RNA)
# RNA: B1 RNA with G25U, U26G, C27A, C28A, A30U
# DNA 1: CAATCTGAATTCCGGTCTCCC
# DNA 2: TGGTGGCTACGACGGGATT
# B17: CUAAGUG (DNA:RNA)
# RNA: B11 RNA with C26U, U27A, U28A, A29G, C31G
# DNA 1: CAATCTGAATTCCGGTCTCCC
# DNA 2: TGGTGGCTACGACGGGATT
# B18: UUUCUGU (DNA:RNA)
# RNA: B1 RNA with G25U, C27U, A30G, G31U
# DNA 1: CAATCTGAATTCCGGTCTCCC
# DNA 2: TGGTGGCTACGACGGGATT
# B19: UGCGAAA (DNA:RNA)
# RNA: B1 RNA with G25U, U26G, C28G, U29A, G31A
# DNA 1: CAATCTGAATTCCGGTCTCCC
# DNA 2: TGGTGGCTACGACGGGATT
# B20: UCUUCAU (DNA:RNA)
# RNA: B11 RNA with C25U, A29C, U30A, C31U
# DNA 1: CAATCTGAATTCCGGTCTCCC
# DNA 2: TGGTGGCTACGACGGGATT
# B21: GACGACC (DNA:RNA)
# RNA: B11 RNA with C25G, C26A, U27C, U28G, U30C
# DNA 1: CAATCTGAATTCCGGTCTCCC
# DNA 2: TGGTGGCTACGACGGGATT
# B22: GAUUCAC (DNA:RNA)
# RNA: B11 RNA with C25G, C26A, A29C, U30A
# DNA 1: CAATCTGAATTCCGGTCTCCC
# DNA 2: TGGTGGCTACGACGGGATT
# B23: CACGUCC (DNA:RNA)
# RNA: B11 RNA with C26A, U27C, U28G, A29U, U30C
# DNA 1: CAATCTGAATTCCGGTCTCCC
# DNA 2: TGGTGGCTACGACGGGATT
# B24: CAGCCUC (DNA:RNA)
# RNA: B11 RNA with C26A, U27G, U28C, A29C
# DNA 1: CAATCTGAATTCCGGTCTCCC
# DNA 2: TGGTGGCTACGACGGGATT
# B25: CUUAGGG (DNA:RNA)
# RNA: B11 RNA with C26U, U28A, A29G, U30G, C31G
# DNA 1: CAATCTGAATTCCGGTCTCCC
# DNA 2: TGGTGGCTACGACGGGATT
# B26: GAAAUUU (DNA:RNA)
# RNA: B1 RNA with U26A, C27A, C28A, A30U, G31U
# DNA 1: CAATCTGAATTCCGGTCTCCC
# DNA 2: TGGTGGCTACGACGGGATT
# B27: GAUUGUU (DNA:RNA)
# RNA: B11 RNA with C25G, C26A, A29G, C31U
# DNA 1: CAATCTGAATTCCGGTCTCCC
# DNA 2: TGGTGGCTACGACGGGATT
# B28: CGGGUUA (DNA:RNA)
# RNA: B11 RNA with C26G, U27G, U28G, A29U, C31A
# DNA 1: CAATCTGAATTCCGGTCTCCC
# DNA 2: TGGTGGCTACGACGGGATT
# B29: CAACCUU (DNA:RNA)
# RNA: B11 RNA with C26A, U27A, U28C, A29C, C31U
# DNA 1: CAATCTGAATTCCGGTCTCCC
# DNA 2: TGGTGGCTACGACGGGATT
# B30: GACCUGA (DNA:RNA)
# RNA: B1 RNA with U26A, A30G, G31A
# DNA 1: CAATCTGAATTCCGGTCTCCC
# DNA 2: TGGTGGCTACGACGGGATT
# B31: CAUGCGC (DNA:RNA)
# RNA: B11 RNA with C26A, U28G, A29C, U30G
# DNA 1: CAATCTGAATTCCGGTCTCCC
# DNA 2: TGGTGGCTACGACGGGATT
# Target: T1, RBFOX1 RRM
# Assay: EMSA; HiTS-Eq, 1 nM pool, 10 min; buffer printed only for the single-RNA assays: 10 mM Tris pH 7.5, 150 mM NaCl, 3.4 mM EDTA, 0.001% NP-40, 30 C
# Conditions: tags: His6 N-terminal (pET28a); label: 5' 32P
# How it was run: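 Relative association constants, normalised to the cognate motif, were derived by comparing read counts of each RNA species with those of the control reaction. The RNA sequenced was the free fraction, separated by 8% native PAGE after a 10 min equilibration in 50 µL of 1 nM 5′-radiolabelled RNA (7 randomized nucleotides) with increasing concentrations of purified wild-type or mutant RbFox RRM.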
row,Binder,binding signal
1,B1,0.0105 KA relative to UGCAUGU
2,B2,0.0111 KA relative to UGCAUGU
3,B3,0.0143 KA relative to UGCAUGU
4,B4,0.00546 KA relative to UGCAUGU
5,B5,0.0461 KA relative to UGCAUGU
6,B6,0.0224 KA relative to UGCAUGU
7,B7,0.00111 KA relative to UGCAUGU
8,B8,0.0147 KA relative to UGCAUGU
9,B9,0.00422 KA relative to UGCAUGU
10,B10,0.0184 KA relative to UGCAUGU
11,B11,0.00182 KA relative to UGCAUGU
12,B12,0.0211 KA relative to UGCAUGU
13,B13,0.0123 KA relative to UGCAUGU
14,B14,0.0144 KA relative to UGCAUGU
15,B15,0.00783 KA relative to UGCAUGU
16,B16,0.0261 KA relative to UGCAUGU

row,Binder,binding signal
1,B17,0.0128 KA relative to UGCAUGU
2,B18,0.021 KA relative to UGCAUGU
3,B19,0.0155 KA relative to UGCAUGU
4,B20,0.0051 KA relative to UGCAUGU
5,B21,0.0102 KA relative to UGCAUGU
6,B22,0.00705 KA relative to UGCAUGU
7,B23,0.00296 KA relative to UGCAUGU
8,B24,0.00763 KA relative to UGCAUGU
9,B25,0.00258 KA relative to UGCAUGU
10,B26,0.00539 KA relative to UGCAUGU
11,B27,0.0163 KA relative to UGCAUGU
12,B28,0.0205 KA relative to UGCAUGU
13,B29,0.00101 KA relative to UGCAUGU
14,B30,0.0161 KA relative to UGCAUGU
15,B31,0.0106 KA relative to UGCAUGU
